PubChem BioAssay AID434955 (Southern Research Specialized Biocontainment Screening …, 2010)
Some of the results follow. These are further read-outs of the screen, such as a control signal, another cell line or another target. No call is given for them. The list favours compounds with an active or inconclusive main result.

Assay: beta-lactam sensitization of Mtb H37Rv, H37Rv (AID 434955);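 also: growth measured after seven days incubation then overnight dye step; 0% = bacteria only wells and 100% = bacteria with antibiotic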
Conditions: M. tuberculosis H37Rv growth with meropenem, percent inhibition; measured here: primary screen without meropenem; at 25 µM
`Cc1ccc2c(c1)N(CC(=O)NC1CCCCCC1)C(=O)c1cccnc1O2` showed an inhibition of 1.85%.
`CCOC(=O)c1ccc(-c2ccc(C=O)o2)cc1` showed an inhibition of 12.7%.
`COc1ccccc1/C=C/C(=O)c1c2c(c(C)[nH]c1=O)CCCC2` gave an inhibition of -3.04%.
Molecule `O=S(=O)(Cc1ccccc1)NCc1cccnc1` has an inhibition of -0.02%.
Work on `COc1cccc(N2CCN(c3cnc4ccccc4n3)CC2)c1` yielded an inhibition of -5.39%.
Work on `CCNC(=O)COn1c(SCC(=O)NCC)nc2ccccc2c1=O` yielded an inhibition of -5.59%.
With `COC(=O)C1=C(C)NC(C)=C(C(=O)OCC2CCCO2)C1c1ccc(Cl)c([N+](=O)[O-])c1` (stereo not drawn) the inhibition was 4.23%.
For `O=C(N/N=C/C(Br)=C\c1ccccc1)c1ccc2nc[nH]c2c1`, the inhibition was 31.2%.
Work on `CCCN1CCc2c(sc(NC(=O)CCS(=O)(=O)c3ccccc3)c2C(=O)OC)C1` yielded an inhibition of -2.93%.
Molecule `CCC(=O)Nc1cc(OC)c(NC(=O)c2ccccc2)cc1OC` has an inhibition of 27.5%.
`O=C(/C=C/c1cccs1)Nc1nc(-c2ccccc2)cs1` showed an inhibition of 4.83%.
For `O=C1CCC(C(=O)N2CCCC(Nc3ccc(F)cc3)C2)=NN1` (stereo not drawn), the inhibition was -6.73%.
With `Cc1onc(NC(=O)c2ccc([N+](=O)[O-])o2)c1Br` the inhibition was -2.66%.
With `Cc1nc(/N=C(\N)NC(=O)c2ccccc2)nc2ccccc12` the inhibition was 6.22%.
With `O=C(CN1C(=O)NC2(CCCC2)C1=O)OCCOc1ccccc1` the inhibition was 2.39%.
Molecule `CCCN(CCC)CCNC(=O)C1CCN(Cc2nc(-c3ccc(Cl)cc3)oc2C)CC1` has an inhibition of -18.7%.
`Cc1ccc(C)c(NC(=O)C2Cc3ccccc3CN2C(=O)OCc2ccccc2)c1` (stereo not drawn) showed an inhibition of 41.9%.
`CCOc1ccc(CCN2C(=O)C3C4C=CC(C4)C3C2=O)cc1OCC` (stereo not drawn) gave an inhibition of -9.81%.
In the case of `CCOc1ccc(CN2CCNC(=O)C2CC(=O)NC2CCOCC2)cc1` (stereo not drawn), the inhibition is reported as -9.88%.
In the case of `COc1ccc(N(C(=O)c2ccncc2)S(=O)(=O)c2ccc(F)cc2)cc1`, the inhibition is reported as -0.01%.
With `Cn1ccnc1CN1CCN(C(=O)c2cc(COc3ccc(F)c(F)c3)on2)CC1` the inhibition was 1.42%.
`Cc1nc(CCNC(=O)CC2C(=O)NCCN2Cc2ccccc2)sc1C` (stereo not drawn) gave an inhibition of -0.43%.
Work on `CCOC(=O)CN1C(=O)C2(OCCCO2)c2ccccc21` yielded an inhibition of 1.56%.
With `Cc1ccc(C(CC(=O)NCc2ccco2)c2ccccc2)c(O)c1` (stereo not drawn) the inhibition was 8.46%.
For `Cc1ccc2c(c1)cc1c(=O)n(CC(=O)N3CCC4(CC3)OCCO4)nc(C)n12`, the inhibition was 0.81%.
With `Cc1cc(C(=O)N/N=C/c2ccc(-c3ccc(C)c(Cl)c3)o2)n[nH]1` the inhibition was 42.8%.
Molecule `O=C(NCCN1CCNC1=O)C1CCC(=O)N(CCc2ccccc2)C1` (stereo not drawn) has an inhibition of -14.5%.
Molecule `COc1cc(C(=O)Nc2c(C(=O)O)[nH]c3ccc(Br)cc23)cc(OC)c1OC` has an inhibition of 7.31%.
Work on `CCOc1ccc(CC(=O)Nc2c3c(nn2C(C)(C)C)CS(=O)(=O)C3)cc1` yielded an inhibition of 3.73%.
With `Cc1ccccc1N1CCN(C2CCCN(C(=O)c3csc(C(C)C)n3)C2)CC1` (stereo not drawn) the inhibition was -4.1%.
For `O=C(c1ccccc1-c1ncc[nH]1)N1CCCC(Nc2ccc(F)cc2)C1` (stereo not drawn), the inhibition was 0.59%.
`O=C(N/N=C/c1cccc(O)c1)c1ccc2c(c1)OCCO2` showed an inhibition of 3.78%.
Work on `O=C(Nc1cccc2ccccc12)/C(=C/c1cccc([N+](=O)[O-])c1)NC(=O)c1cccs1` yielded an inhibition of 1.82%.
Molecule `Cc1ccc(C(=O)NCC(=O)Nc2ccncc2)cc1C` has an inhibition of 0.43%.
In the case of `Cc1c(C(=O)N2CCCCCC2)c(S(=O)(=O)Nc2cccc(F)c2)c(C)n1C`, the inhibition is reported as -2.39%.
With `CCOC(=O)c1sc(NC(=O)CSc2nnc(-c3ccc(OC)cc3)n2CCOC)nc1C` the inhibition was -19.8%.
In the case of `O=C(CCN1C(=O)C2C3CCC(C3)C2C1=O)Nc1ccccc1Cl` (stereo not drawn), the inhibition is reported as 4.48%.
In the case of `COc1ccc(S(=O)(=O)N2CCOC2CNC(=O)C(=O)NCc2ccccc2OC)cc1` (stereo not drawn), the inhibition is reported as 0.15%.
Work on `CCCOc1ccccc1/C=N/Nc1ccnc(=O)[nH]1` yielded an inhibition of 1.76%.
In the case of `CCOC(=O)c1c(C)[nH]c(C)c1S(=O)(=O)N(C)CC(=O)NCc1cccc(Br)c1`, the inhibition is reported as -3.87%.
In the case of `Cc1cc(C)n(-c2nc3sc4c(c3c(=O)[nH]2)CCCC4)n1`, the inhibition is reported as 92.9%.
With `O=C(NCCOc1ccccc1)C1CCC(=O)N(C2CCCCCC2)C1` (stereo not drawn) the inhibition was -7.09%.
With `CCN(c1ccccc1)S(=O)(=O)c1cc2c(cc1C)N(C)CCO2` the inhibition was 7.01%.
Work on `CC(Sc1nnc(-c2ccccc2Br)o1)C(=O)N1CCOCC1` (stereo not drawn) yielded an inhibition of 2.93%.
With `O=C(NCCc1ccccn1)c1ccc(OC2CCN(Cc3ccccn3)CC2)cc1` the inhibition was 5.24%.
Molecule `CCOc1ccc(CCN2C(=O)CCC2(C)C(=O)NC(C)CC)cc1OCC` (stereo not drawn) has an inhibition of -4.27%.
Work on `CCC(C)(C(=O)NC1CCCC1)N(C(=O)c1ccccn1)c1ccccc1` (stereo not drawn) yielded an inhibition of -10.4%.
`O=C(c1cccs1)c1coc2ccc(O)c(CN(CCO)CCO)c12` showed an inhibition of -3.65%.
`O=C(CSc1nnc(CNC(=O)c2ccc(F)cc2)o1)NCc1ccccc1` showed an inhibition of 9.12%.
In the case of `Cc1ccc(NC(=O)C(=O)NCc2ccc(/C=N/NC(=O)c3c(C)nc4ccccn34)o2)cc1`, the inhibition is reported as 8.21%.
Molecule `O=C(Nc1ccccc1Cl)c1csc(-c2cccnc2)n1` has an inhibition of 31.8%.
Work on `CCc1ccc(N2C(=O)/C(=C/c3cccs3)N(CC(=O)OC)C2=S)cc1` yielded an inhibition of -1.87%.
Molecule `O=C(NC(=S)Nc1ccccc1N1CCCCC1)c1ccc(F)cc1` has an inhibition of 2.92%.
